# In PubChem BioAssay AID602329 (Broad Institute, 2012):
# Out of some 360,000 compounds screened, about 510 (0.14%) were called active. Inconclusive means that the source gave no clear call. Such entries were picked first, then a sample of the others.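 The calls were made as follows: active = mean normalized replicate activity at least 40 and at least half of replicates scoring 40 or more; inconclusive = only one of the two criteria met; inactive = mean below 40 and under half of replicates reaching 40.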
# Molecular target: DNA repair and recombination protein RAD54-like (Homo sapiens) (UniProt Q92698)
# Test: RAD54 Holliday junction migration blockers – biochemical, fluorescence, single point, primary screen (AID 602329);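 also: 0% = median of neutral control wells and 100% = median of positive control wells; inhibitors cause a drop in the FAM fluorescence signal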
# Details: RAD54 Holliday junction branch migration, FAM/BHQ fluorescence; at 10.4 µM; stronger effect = higher value
# Sequence of UniProt Q92698 (Q92698 whole entry, looked up): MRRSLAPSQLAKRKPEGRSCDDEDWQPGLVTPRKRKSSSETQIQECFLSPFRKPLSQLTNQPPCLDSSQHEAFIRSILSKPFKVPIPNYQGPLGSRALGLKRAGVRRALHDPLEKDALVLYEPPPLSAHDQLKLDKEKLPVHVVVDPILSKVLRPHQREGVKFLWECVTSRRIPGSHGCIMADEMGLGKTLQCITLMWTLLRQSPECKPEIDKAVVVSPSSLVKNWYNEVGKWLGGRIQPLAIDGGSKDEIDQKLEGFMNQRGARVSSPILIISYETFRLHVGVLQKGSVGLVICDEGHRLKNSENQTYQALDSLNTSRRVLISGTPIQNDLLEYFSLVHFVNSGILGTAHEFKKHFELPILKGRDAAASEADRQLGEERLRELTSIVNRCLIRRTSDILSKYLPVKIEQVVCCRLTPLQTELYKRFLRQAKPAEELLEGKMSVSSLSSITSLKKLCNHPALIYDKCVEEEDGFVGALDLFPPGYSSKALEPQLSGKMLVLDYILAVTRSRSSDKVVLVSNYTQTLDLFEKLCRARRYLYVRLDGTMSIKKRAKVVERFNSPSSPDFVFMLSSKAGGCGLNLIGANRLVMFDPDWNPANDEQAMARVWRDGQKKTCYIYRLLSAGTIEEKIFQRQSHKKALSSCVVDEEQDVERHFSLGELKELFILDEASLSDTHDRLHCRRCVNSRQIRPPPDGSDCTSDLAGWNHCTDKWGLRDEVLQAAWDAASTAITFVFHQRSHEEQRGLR
row,Compound,inhibition
1,OCCN1CCN(c2nc(-c3ccccc3O)nc3ccccc23)CC1,active: 73.3%
2,CO[C@H]1CN(C)C(=O)c2cc(NC(=O)c3cnccn3)ccc2OC[C@H](C)NC[C@H]1C,inactive: 0.593%
3,COc1ccc(C(=O)Nc2cc(C)c(NC(=O)c3ccccc3OC)cn2)cc1,inconclusive: 31.4%
4,Cc1cccn2c(=O)c3cc(C(=O)NCC4CCCO4)c(=N)n(C4CCCCC4)c3nc12 (centres undefined),inconclusive: 49.1%
5,CN1CCc2c(sc(NC(=O)c3ccc4ccccc4c3)c2C(N)=O)C1,inconclusive: 49.2%
6,COCCCNCCC(CCC(C)C)c1ccc2c(c1)OCO2 (centres undefined),inconclusive: 35%
7,CN1CCCN(c2cc(-c3ccc4ccccc4c3)nc3ccnn23)CC1,active: 63.6%
8,C[C@H]1CN([C@@H](C)CO)C(=O)Cc2cc(NC(=O)Nc3cccc4ccccc34)ccc2O[C@H]1CN(C)S(=O)(=O)c1ccc(Cl)cc1,inconclusive: 42%
9,CCOC(=O)c1cnc2c(Cl)cccc2c1NCCCN1CCOCC1,inconclusive: 41.3%
10,O=C(NN1CCOCC1)c1cc(-c2ccc(Cl)c(Cl)c2)nc2ccccc12,inconclusive: 29.5%
11,O=S(=O)(c1ccccc1)N1CCCCN2[C@H](CO)[C@H](c3ccc(C#CC4CCCC4)cc3)[C@@H]2C1,inconclusive: 28.7%
12,O=C(C[C@@H]1C[C@H]2c3cc(NC(=O)CC4CC4)ccc3O[C@H]2[C@@H](CO)O1)NCc1ccc(Cl)cc1,inconclusive: 27.4%
13,Cc1cccc(-n2c(O)c(C=Nc3ccccc3O)c3ccccc3c2=O)n1,inconclusive: 49.6%
14,C=CC[n+]1ccc(/C=C2\C=Cc3cc(C)ccc3N2CC)c2ccccc21,inconclusive: 45.9%
15,CN1CCN(CCCNC(=O)c2cc3c(=O)oc4ccccc4c3s2)CC1,active: 55.7%
16,Cc1cc(C)c2nc3nc(C)cc(C)c3c(N)c2c1,active: 96%
17,CCC(=O)N(Cc1cc2cc(OC)ccc2[nH]c1=O)c1cc(C)ccc1C,inconclusive: 43.8%
18,CCCC(c1nnnn1Cc1ccc(OC)cc1)N1CCN(c2ccccc2)CC1 (centres undefined),inconclusive: 34.4%
19,Cc1cccc(N2CCN(C(=O)C(Cc3ccccc3)n3cccc3)CC2)c1C (centres undefined),inactive: 4.19%
20,O=C1C(c2ccc(F)cc2)N(C2CCCCC2)C(=O)CN1C1CCCC1 (centres undefined),inconclusive: 41.9%
21,C[C@H](NC(=O)C[C@H]1C[C@H]2c3cc(NC(=O)c4cccnc4)ccc3O[C@H]2[C@@H](CO)O1)c1ccccc1,inconclusive: 25.7%
22,CN(C)CCCn1c(SCC(=O)Nc2nc(-c3cccc(Br)c3)cs2)nc2ccccc2c1=O,inconclusive: 47.6%
23,CCC[C@@H](CN1CCC[C@H]1CN1C(N)=NC[C@@H]1Cc1ccccc1)N1C[C@@H]([C@H](C)CC)N(CCCC2CCCC2)C1=N,inconclusive: 47.5%
24,Cc1cc(C(=O)Nc2cccc3c2O[C@H](CN(C)Cc2ccc(-c4ccccc4)cc2)[C@@H](C)CN([C@@H](C)CO)C3=O)n(C)n1,inactive: -10.7%
25,C=CC(=O)Nc1cccc(Oc2ccnc(Nc3ccc(N4CCN(C)CC4)cc3)n2)c1,inconclusive: 36.8%
26,COC(=O)Nc1nnc(COc2ccccc2)s1,inconclusive: 24.9%
27,Cc1cccc(-c2cc(N3CCCN(C)CC3)n3nccc3n2)c1,inconclusive: 45.8%

row,Compound,inhibition
1,CCn1c(=N)c(C(=O)NC)cc2c(=O)n3cccc(C)c3nc21,inconclusive: 38.3%
2,COc1ccc(CN(C)C[C@@H]2Oc3ccc(NC(=O)Nc4ccc(OC)cc4)cc3C(=O)N([C@@H](C)CO)C[C@H]2C)cc1,active: 62.1%
3,COc1ccc(-c2ccc3c(c2)O[C@H](CN(C)C(C)=O)[C@H](C)CN([C@@H](C)CO)S3(=O)=O)cc1,inconclusive: 29.9%
4,Brc1ccc(-c2noc(COc3ccc4c(c3)CCC4)n2)o1,inactive: -9.97%
5,COc1cc2[nH]c3c(=O)n(CCN(C(C)C)C(C)C)cnc3c2cc1OC,inconclusive: 46.5%
6,N=c1n(CCN2CCCCC2)c2ccccc2n1CC(=O)c1ccc(Cl)c(Cl)c1,inconclusive: 44.7%
7,Cc1nn(C)cc1NC(=O)C[C@H]1CC[C@@H]2[C@H](COc3ccc(NC(=O)NC(C)C)cc3C(=O)N2C)O1,inactive: -1.92%
8,COc1ccc2c(c1)c1ncn(CCN3CCCC3)c(=O)c1n2C,active: 59.2%
9,COC(=O)C1C(=O)NC(SC)=C(C#N)C1c1ccccc1 (centres undefined),inactive: -3.9%
10,CN(C)CCNc1cc(-c2ccncc2)nc2ccccc12,active: 57.5%
11,NC(=Nc1ccccc1)NC(=O)c1nc(Cl)c(N)nc1N,inconclusive: 38%
12,CN(C)CCCN(C(=O)CCOc1ccccc1)c1nc2ccc(F)cc2s1,active: 65.1%
13,C/C=C/c1ccc([C@@H]2[C@@H](CO)N3CCCCN(C(=O)Nc4ccc(F)cc4)C[C@H]23)cc1,inconclusive: 31.1%
14,Cc1ccc2c(c1)c1c3n2CCN(CC(O)CNC(C)C)C3CCC1 (centres undefined),inconclusive: 48.9%
15,CN1CCN(c2nc(-c3ccccn3)nc3ccccc23)CC1,inconclusive: 42.7%
16,Cc1ccc2nc(C)cc(Nc3ccc4c(c3)OCCO4)c2c1,active: 59.8%
17,CN1CCN(c2ccc(CNC(=O)C3Cc4c(-c5ccc(Cl)cc5)ccnc4O3)cc2)CC1 (centres undefined),inconclusive: 46.4%
18,O=S(=O)(c1ccc(-c2nnc(SCc3ccccc3)o2)cc1)N1CCCC1,inconclusive: 27.3%
19,Cc1noc(C)c1NC(=O)Nc1ccc2c(c1)C(=O)N([C@H](C)CO)C[C@H](C)[C@H](CN(C)S(C)(=O)=O)OCCCC[C@H](C)O2,inconclusive: 26.7%
20,C[n+]1c2n(c3ccccc31)N=C(c1ccc(Cl)cc1)CS2,inactive: 19.4%
21,COc1ccccc1N1CCN(C2CCCN(C(=O)c3ccoc3C)C2)CC1 (centres undefined),inactive: 8.46%
22,CCCCCCCCCCOC(=O)Cn1c(COc2ccccc2)[n+](C)c2ccccc21,inconclusive: 42.7%
23,CCN1C(=O)CCN(C2CCCC2)c2nc(Nc3ccc(C(=O)NC4CCN(C)CC4)cc3OC)ncc21,inconclusive: 42.4%
24,O=C(Cc1ccc(-n2c(=O)c3ccccc3n(Cc3ccccc3F)c2=O)cc1)NCC1CCCO1 (centres undefined),inactive: 8.85%
25,Oc1cccc(Nc2c3ccccc3nc3ccccc23)c1,active: 57.3%
26,CN(C(=O)COC(=O)c1cccnc1Cl)C1CCCCC1,inconclusive: 26.5%
27,COc1cc(/C=N/Nc2nc3ccccc3[nH]2)ccc1O,inconclusive: 40.5%

row,Compound,inhibition
1,CCN(CC)CCn1c2ccc(Cl)cc2c2nc(C)sc21,active: 63.6%
2,CN1CCN(c2nc(-c3cccc([N+](=O)[O-])c3)nc3ccccc23)CC1,active: 74.6%
3,COc1ccccc1C#Cc1cnc2c(c1)C(=O)N([C@H](C)CO)C[C@@H](C)[C@@H](CN(C)C(C)=O)O2,inactive: -2.88%
4,CCN1CCN(c2cc(C)c3cc(NC(=S)N4CCC5(CC4)OCCO5)ccc3n2)CC1,inconclusive: 49.8%
5,C=CCC1(C#N)C(=S)NC(C)=C(C(=O)OCC)C1c1ccccc1 (centres undefined),inconclusive: 32.4%
6,CCOC(=O)c1ccc(Nc2nc(N)c3cc(OC)c(OC)cc3n2)cc1,inconclusive: 49.9%
7,COc1ccc(-c2ccc3c(c2)O[C@@H](CN(C)C)[C@H](C)CN([C@@H](C)CO)S3(=O)=O)cc1,inactive: 7.21%
8,Cc1cc(N2CCN(C)CC2)nc2ccc(NC(=S)NCCN3CCc4ccccc4C3)cc12,active: 88.9%
9,COc1cccc2sc3cc(NCCCN4CCOCC4)ccc3c(=O)c12,active: 78.2%
10,COc1ccccc1NC(=O)Cn1nnc2sc3c(c2c1=O)CC(C)(C)OC3,inconclusive: 30.5%
11,C#Cc1ccc([C@H]2C=C(C(=O)NCc3nc4ccccc4[nH]3)O[C@@H](OCc3ccc(CO)cc3)C2)cc1,inactive: 8.78%
12,C[C@@H]1CN([C@@H](C)CO)C(=O)c2cc(NS(=O)(=O)c3cccs3)ccc2O[C@@H]1CN(C)C(=O)Nc1cccc2ccccc12,inconclusive: 29.1%
13,C[C@@H]1CN([C@@H](C)CO)C(=O)c2cc(C3=CCCC3)cnc2O[C@@H]1CN(C)C(=O)Nc1ccc(F)cc1,inconclusive: 26.9%
14,C=CCN1C(=O)C(C)(C)Nc2ccccc21,inconclusive: 18.3%
15,Clc1ccc2[nH]c3c(NCCCN4CCOCC4)ncnc3c2c1,inconclusive: 49.9%
16,Cc1ccsc1-c1cc2nc(NCCCN(C)C)n(C)c(=O)c2s1,inconclusive: 34.4%
17,CCOC(=O)N1CCN(S(=O)(=O)c2ccc(C(=O)Nc3sc4c(c3C(=O)OC)CCN(C)C4)cc2)CC1,inconclusive: 47.7%
18,O=C(CS(=O)(=O)c1ccccc1)Nc1ccc(Br)cn1,inconclusive: 47.2%
19,CN(CC(=O)Nc1ccc(Cl)c(C(F)(F)F)c1)C(=O)c1cc(=O)c2ccccc2o1,inactive: 0.342%
20,CN(C)CCNC(=O)c1cccc(-c2cnc3c(NC=O)cc(-c4ccc(C(=O)N5CCOCC5)cc4)cn23)c1,inconclusive: 49.4%
21,Cc1ccc(S(=O)(=O)N[C@H]2C=C[C@@H](CC(=O)N3CCc4ccccc4C3)O[C@@H]2CO)cc1,inactive: -0.902%
22,O=C(NC1CCC1)[C@@H]1[C@@H](CO)[C@@H]2Cn3c(ccc(-c4ccncc4)c3=O)[C@@H]2N1CC1CC1,inactive: -5.62%
23,CCn1cc(C(=O)NCCN(C)C)c(=O)c2cc(F)c(N3CCN(C)CC3)cc21,active: 59.3%
24,COc1cccc2c1-c1c(O)cccc1C2=O,inconclusive: 49%
25,C[C@H]1CN([C@@H](C)CO)C(=O)Cc2cc(NC(=O)Nc3cccc4ccccc34)ccc2O[C@H]1CN(C)S(=O)(=O)c1ccc(F)cc1,inconclusive: 39.6%
